Laboratory results from paper PMC7544229, “Periphilin self-association underpins epigenetic silencing by the HUSH complex” (Nucleic Acids Research, 2020).
Positions count from the first letter of the chain named. Names may count otherwise. No constants are given. Whether binding was seen depends on the method and setting. For some of these results: Binding seen in cells or lysates may run through a third protein. Some results given as binding are weak or reduced against the parent protein; the word gives no strength. For some of these results: Where a sequence is shown, tags or fusion partners need not be part of it.

T1: Δ1–297 Periphilin (V5-tagged) (human) (UniProt Q8NEY8)
T1 sequence: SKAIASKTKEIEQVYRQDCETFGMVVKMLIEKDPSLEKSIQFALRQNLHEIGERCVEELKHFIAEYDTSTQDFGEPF

T2: Δ350–374 Periphilin (V5-tagged) (human) (UniProt Q8NEY8)
T2 sequence: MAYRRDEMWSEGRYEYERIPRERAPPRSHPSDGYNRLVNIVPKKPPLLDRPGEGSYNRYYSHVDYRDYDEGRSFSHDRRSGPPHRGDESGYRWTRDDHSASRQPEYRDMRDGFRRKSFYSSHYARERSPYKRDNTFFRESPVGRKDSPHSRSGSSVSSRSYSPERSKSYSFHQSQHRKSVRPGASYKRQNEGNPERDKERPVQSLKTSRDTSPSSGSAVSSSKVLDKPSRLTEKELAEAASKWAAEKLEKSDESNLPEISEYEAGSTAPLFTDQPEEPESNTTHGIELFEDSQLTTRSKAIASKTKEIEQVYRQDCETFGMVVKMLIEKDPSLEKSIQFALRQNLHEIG

T3: Δ1–127 Periphilin (V5-tagged) (human) (UniProt Q8NEY8)
T3 sequence: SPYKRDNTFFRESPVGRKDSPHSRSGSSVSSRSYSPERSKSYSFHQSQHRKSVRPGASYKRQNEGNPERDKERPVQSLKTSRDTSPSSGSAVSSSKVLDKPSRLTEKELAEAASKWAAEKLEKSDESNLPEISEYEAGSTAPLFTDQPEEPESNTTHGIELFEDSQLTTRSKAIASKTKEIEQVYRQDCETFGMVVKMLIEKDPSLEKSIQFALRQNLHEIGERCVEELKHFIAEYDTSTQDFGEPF

T4: TASOR fragment (residues 1014–1095) (human, UniProt Q9UK61-1 1014-1095)
T4 construct: codon-optimized synthetic gene; untagged; Residues 1055–1071 are disordered in the crystal structure; also called untagged TASOR fragment; minimal core TASOR; source: E. coli BL21 (DE3), co-expressed with His6-Periphilin fragments from pRSF-Duet, co-purified with Periphilin
T4 sequence (looked up): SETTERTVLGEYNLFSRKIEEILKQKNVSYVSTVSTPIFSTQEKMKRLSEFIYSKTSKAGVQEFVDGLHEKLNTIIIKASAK

B1: wild-type Periphilin (V5-tagged, full-length, isoform 2) (protein, UniProt Q8NEY8-2 1-374)
chain: MAYRRDEMWSEGRYEYERIPRERAPPRSHPSDGYNRLVNIVPKKPPLLDRPGEGSYNRYYSHVDYRDYDEGRSFSHDRRSGPPHRGDESGYRWTRDDHSASRQPEYRDMRDGFRRKSFYSSHYARERSPYKRDNTFFRESPVGRKDSPHSRSGSSVSSRSYSPERSKSYSFHQSQHRKSVRPGASYKRQNEGNPERDKERPVQSLKTSRDTSPSSGSAVSSSKVLDKPSRLTEKELAEAASKWAAEKLEKSDESNLPEISEYEAGSTAPLFTDQPEEPESNTTHGIELFEDSQLTTRSKAIASKTKEIEQVYRQDCETFGMVVKMLIEKDPSLEKSIQFALRQNLHEIGERCVEELKHFIAEYDTSTQDFGEPF
B2: Δ1–70 Periphilin (V5-tagged) (domain or fragment, UniProt Q8NEY8-2 71-374)
chain: GRSFSHDRRSGPPHRGDESGYRWTRDDHSASRQPEYRDMRDGFRRKSFYSSHYARERSPYKRDNTFFRESPVGRKDSPHSRSGSSVSSRSYSPERSKSYSFHQSQHRKSVRPGASYKRQNEGNPERDKERPVQSLKTSRDTSPSSGSAVSSSKVLDKPSRLTEKELAEAASKWAAEKLEKSDESNLPEISEYEAGSTAPLFTDQPEEPESNTTHGIELFEDSQLTTRSKAIASKTKEIEQVYRQDCETFGMVVKMLIEKDPSLEKSIQFALRQNLHEIGERCVEELKHFIAEYDTSTQDFGEPF
B3: Periphilin fragment (residues 292–367) (domain or fragment, human, UniProt Q8NEY8-2 292-367, looked up)
chain: SQLTTRSKAIASKTKEIEQVYRQDCETFGMVVKMLIEKDPSLEKSIQFALRQNLHEIGERCVEELKHFIAEYDTST
notes: codon-optimized synthetic gene; preceded by a His6 tag and a TEV site (ENLYFQG), digested with TEV protease; Two copies of this chain form a homodimer in the 2:1 complex with TASOR; A residue of the TEV site (G) may remain at the N-terminus after cleavage; not shown: His6, N-terminal, cleaved
B4: Δ350–374 Periphilin (V5-tagged) (domain or fragment, UniProt Q8NEY8-2 1-349)
chain: T2 sequence
B5: Periphilin L356R (V5-tagged) (protein, UniProt Q8NEY8-2 1-374)
chain: B1 chain with L356R
B6: Periphilin L326A (V5-tagged) (protein, UniProt Q8NEY8-2 1-374)
chain: B1 chain with L326A
B7: Periphilin L333A/I337A (V5-tagged) (protein, UniProt Q8NEY8-2 1-374)
chain: B1 chain with L333A, I337A

Columns and labels:
[1] = molecular target: T1, Δ1–297 Periphilin (V5-tagged) (human); experiment: co-IP; IP of V5-Periphilin variants with anti-V5 antibody on Protein A/G resin from lysates (1% NP-40 or IGEPAL in TBS) of Periphilin KO HeLa cells complemented with Periphilin deletion mutants; 2 h at 4°C; TASOR detected by immunoblot
[2] = molecular target: T2, Δ350–374 Periphilin (V5-tagged) (human); experiment: as above
[3] = molecular target: T3, Δ1–127 Periphilin (V5-tagged) (human); experiment: as above
[4] = molecular target: TASOR (endogenous) (human (endogenous in HeLa)) (UniProt Q9UK61); experiment: co-IP; IP of endogenous TASOR with anti-TASOR antibody on resin from lysates (14 000 g supernatant, 1% NP-40) of Periphilin KO HeLa cells complemented with V5-Periphilin variants; 2 h at 4°C; Periphilin detected by its V5 tag
[5] = molecular target: T4, TASOR fragment (residues 1014–1095); experiment: crystal structure; Periphilin 292–367 with TASOR 1014–1095; sitting drop, 18°C, 0.1 M citrate pH 4.5, 1 M ammonium sulfate; SAD phasing with Br; refined at 2.5 Å; both purified

Row | Molecule | binding [4] | other results
1 | TASOR (endogenous) (from UniProt Q9UK61 1-1670) |  | binding [1]: binds; binding [2]: no binding; binding [3]: binds
2 | B1 | binds | 
3 | B2 | binds | 
4 | B3 |  | binding [5]: binds
5 | B4 | no binding | 
6 | B5 | no binding | 
7 | B6 | no binding | 
8 | B7 | no binding | 
